Test results: publication PMC4336329 (PLoS ONE, 2015)
Screen size: about 310,000 compounds; about 2,200 (0.71%) showed an effect of 50% or more. Effects have a minus sign here. The list shows a part of the results.

target: human ether-à-go-go-related gene (hERG) potassium channel (human, UniProt Q12809); experiment: primary screen, population patch clamp on CHO cells stably expressing hERG
Sequence (Q12809 whole entry, looked up): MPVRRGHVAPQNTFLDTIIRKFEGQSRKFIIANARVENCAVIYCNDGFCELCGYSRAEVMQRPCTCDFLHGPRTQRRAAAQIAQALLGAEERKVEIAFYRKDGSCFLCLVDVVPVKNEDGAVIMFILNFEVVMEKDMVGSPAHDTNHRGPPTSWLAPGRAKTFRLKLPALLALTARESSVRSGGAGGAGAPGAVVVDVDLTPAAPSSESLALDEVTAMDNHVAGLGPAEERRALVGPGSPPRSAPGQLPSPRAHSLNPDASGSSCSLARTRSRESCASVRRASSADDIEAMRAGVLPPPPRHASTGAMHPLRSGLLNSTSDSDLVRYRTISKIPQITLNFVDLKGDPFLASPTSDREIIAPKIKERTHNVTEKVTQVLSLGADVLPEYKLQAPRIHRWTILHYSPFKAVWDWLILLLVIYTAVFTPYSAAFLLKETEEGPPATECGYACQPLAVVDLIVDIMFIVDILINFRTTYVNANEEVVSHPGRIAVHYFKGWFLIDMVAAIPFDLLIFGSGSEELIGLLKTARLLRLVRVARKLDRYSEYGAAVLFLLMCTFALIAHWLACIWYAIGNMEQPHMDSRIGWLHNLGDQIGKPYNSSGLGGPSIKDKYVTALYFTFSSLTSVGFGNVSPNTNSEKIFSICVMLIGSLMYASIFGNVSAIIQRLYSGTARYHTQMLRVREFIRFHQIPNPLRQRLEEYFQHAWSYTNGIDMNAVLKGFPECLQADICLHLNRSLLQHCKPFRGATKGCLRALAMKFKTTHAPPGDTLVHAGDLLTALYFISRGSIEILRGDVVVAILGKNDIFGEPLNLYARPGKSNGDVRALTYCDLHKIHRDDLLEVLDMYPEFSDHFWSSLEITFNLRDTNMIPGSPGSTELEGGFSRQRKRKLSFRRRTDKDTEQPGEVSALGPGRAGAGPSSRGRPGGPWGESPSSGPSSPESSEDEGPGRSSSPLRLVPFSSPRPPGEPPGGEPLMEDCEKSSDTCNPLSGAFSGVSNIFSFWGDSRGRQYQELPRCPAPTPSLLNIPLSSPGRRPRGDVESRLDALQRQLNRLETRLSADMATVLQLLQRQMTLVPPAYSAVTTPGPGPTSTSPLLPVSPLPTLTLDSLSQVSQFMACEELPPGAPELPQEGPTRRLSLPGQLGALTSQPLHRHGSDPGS

| Compound | hERG current change (%, negative = inhibition) at 1uM |
| --- | --- |
| CCCCNS(=O)(=O)c1ccc2nc(-c3cccs3)cc(C(=O)NCC(OC)OC)c2c1 | 6.15% |
| O=S(=O)(c1ccc(N2CCN(CCO)CC2)nc1)N1CCOCC1 | 0.34% |
| CC1CCCC(C)N1C(=O)COc1ccc(-c2nnco2)cc1 (stereo not shown) | 9.31% |
| Cc1ccc(-n2nnnc2SCC(=O)N2CCCCC2)cc1 | 2.32% |
| Oc1ccc(Br)cc1/C=N/n1c(C2CCCCC2)n[nH]c1=S | 14.8% |
| COc1cccc(NC(=O)NCc2cccn2C)c1 | 11.2% |
| CC(=O)c1ccc(N2CCN(c3ncccn3)CC2)cc1 | 7.25% |
| Cc1ccc(S(=O)(=O)/N=C(/Nc2ccccn2)c2ccc(Cl)cc2)cc1 | -8.89% |
| CN1CCN(C(=O)c2ccccc2NC(=O)c2ccc(C(C)(C)C)cc2)CC1 | 8.72% |
| O=C1[C@@H]2CSCN2C(=O)CN1Cc1cccc(C(F)(F)F)c1 | 14.3% |
| NC(=O)C1CCN(C(=O)c2ccc3ccccc3c2)CC1 | 13.1% |
| CCOc1ccccc1N1CCN(CC(O)COc2ccc3c(C)cc(=O)oc3c2)CC1 (stereo not shown) | -3.83% |
| N#Cc1c(NC(=O)c2cccnc2)sc2c1CCC2 | 13.9% |
| O=C(COC(=O)C1CCCCC1)Nc1cccc(Br)c1 | 9.92% |
| COc1ccc(NC(=O)Cn2nnc(-c3ccccc3NC(=O)c3cccs3)n2)cc1 | 13.2% |
| CCNc1nc(Cl)nc(NCCOc2ccc(C)cc2)n1 | -3.4% |
| O=C(O)CC1=C(O)C(=O)N(c2ccccc2)C1c1ccc(Br)cc1 (stereo not shown) | 13.8% |
| CCSc1nnc(NC(=O)C(NC(=O)c2ccc(Cl)cc2)C(C)C)s1 (stereo not shown) | 10.1% |
| Cc1ccc(-c2csc(NC(=O)C3=COCCO3)n2)cc1C | 10.9% |
| O=C(N/N=C/c1ccco1)c1cc(-c2ccc3ccccc3c2)n[nH]1 | 12.8% |
| CN=C1S/C(=C\c2ccc(O)c(Br)c2)C(=O)N1C | 8.05% |
| Cc1cccc(NC(=O)c2ccccc2-c2ccccc2)c1 | -3.82% |
| Oc1c(CN2CCc3ccccc3C2)cc(Cl)c2cccnc12 | 4.7% |

| Compound | hERG current change (%, negative = inhibition) at 1uM |
| --- | --- |
| CCn1c(SCc2cccc(C)c2)nnc1-c1ccc(C)cc1 | -1.21% |
| Cc1c(C#N)c2ccccc2n1CC(=O)N1CCCc2ccccc21 | 6.71% |
| Cc1ccc2c(c1)N(CC(=O)NCC1CCCO1)C(=O)C(C(C)C)O2 (stereo not shown) | 5.4% |
| CCc1noc(C)c1C(=O)OC(C)C(=O)Nc1cc([N+](=O)[O-])ccc1OC (stereo not shown) | -1.71% |
| CSc1nc(C)cc(Oc2ccc(OCC(N)=O)nn2)n1 | 12.4% |
| N#Cc1cc([N+](=O)[O-])c(-n2nnc3ccccc32)c([N+](=O)[O-])c1 | 10.4% |
| Cc1cc(NC(=O)CSc2nnc(CNC(=O)c3c(F)cccc3F)o2)no1 | 7.29% |
| COc1ccccc1C(=O)Nc1ccc2nc(SCC(=O)N(C)C)sc2c1 | 1.71% |
| O=C(CN1CCCCCC1)Nc1cc([N+](=O)[O-])ccc1Cl | 13.4% |
| CN1CCCC1CCNc1ccc2sc3ccccc3c(=O)c2c1 (stereo not shown) | 3.29% |
| Cc1ccc(N2C(=O)SC(N(CC(=O)O)c3ccc(C)cc3)C2=O)cc1 (stereo not shown) | 12.9% |
| COc1ccc(-c2nnc3ccc(SCC(=O)N4CCCCCC4)nn23)cc1OC | 9.4% |
| CCn1c(SCC(=O)Nc2sccc2C(N)=O)nnc1C1CC1 | 8.64% |
| Cn1c2c(c(=O)n(C)c1=O)CN(CCc1ccccc1)CN2 | 1.89% |
| C=CCc1ccc(OCCn2nnc3ccccc32)c(OC)c1 | 3.6% |
| CCC(C)(NC(=O)CNC(C)=O)C(=O)NC1CCCCC1 (stereo not shown) | 2.79% |
| O=C(c1nn2c(C(F)(F)F)cc(-c3ccco3)nc2c1Br)N1CCCc2ccccc21 | 5.48% |
| CC(C(=O)Nc1ccc(S(=O)(=O)N2CCOCC2)cc1)N1C(=O)C2CC=CCC2C1=O (stereo not shown) | 14.3% |
| COc1ccccc1OCc1nc(-c2cccc([N+](=O)[O-])c2)no1 | -1.1% |
| O=S(=O)(NC1CCCCC1Sc1ncccn1)c1ccccc1 (stereo not shown) | 5.51% |
| O=C(Nc1ccccn1)c1cccc(S(=O)(=O)N2CCc3ccccc3C2)c1 | -6.16% |
| Nc1c(S(=O)(=O)c2ccccc2)csc1C(=O)O | -7.3% |
| CCN(CC(=O)Nc1ccc(NC(C)=O)cc1)C(=O)c1oc2c(ccc3ccccc32)c1C | 9.65% |

| Compound | hERG current change (%, negative = inhibition) at 1uM |
| --- | --- |
| COC(=O)c1ccc(NC(=O)c2ccco2)cc1 | 2.71% |
| Cc1sc(-c2cccnc2)nc1OC(=O)C1CC1 | 19.4% |
| CC(=O)Nc1ccc(NC(=O)CSc2nnnn2-c2ccc(F)cc2)cc1 | 12.4% |
| Cc1ccc(C)c(Nc2c(F)c(F)c(F)c(F)c2C(=O)O)c1 | 12.5% |
| CCCc1nnc(NC(=O)CCCC(=O)O)s1 | 13.5% |
| COC(=O)c1ccc(C(=O)OC)c(NC(=S)N2CCOCC2)c1 | 7.55% |
| FC(F)(F)c1ccccc1NC(=S)NC1CCN(Cc2ccccc2)CC1 | 10.4% |
| C[C@H](NC(=O)c1ccccc1F)C(=O)N1CCC2(CC1)NCCc1[nH]cnc12 | 12% |
| O=C(NCC(c1ccco1)N1CCc2ccccc2C1)C(=O)Nc1cc(F)ccc1F (stereo not shown) | -20.7% |
| Cc1ncsc1CCC(=O)N1CCCC(Nc2ccc(F)c(F)c2)C1 (stereo not shown) | 1.78% |
| CCc1ccccc1NC(=O)Cn1ccn(-c2ccc(OC)cc2)c(=O)c1=O | 11.6% |
| O=C(NC(c1ccccc1)c1ccccc1)c1ccc(S(=O)(=O)C(F)F)cc1 | 14.5% |
| COc1ccc(CCNC(=O)COc2ccc(C)nc2[N+](=O)[O-])cc1OC | 2.94% |
| COc1ccccc1-n1c(SCC(=O)N2CCCC2)nc2cccnc21 | 5.21% |
| CC1(C)CC(=O)C2=C(C1)NCN(Cc1ccccc1)C2 | -2.47% |
| COCCOC1CCN(Cc2cn(Cc3ccccc3)nc2-c2cc3ccccc3o2)CC1 | -20.7% |
| COCc1cc(=O)[nH]c(-c2csc(C)n2)n1 | 12% |
| CCCN(CC#CCO)CCC | 7.67% |
| CC(=O)N1CCc2cc(S(=O)(=O)NCC(=O)NCc3ccccc3Cl)ccc21 | 4.4% |
| CCOc1ccccc1C1SCC(=O)Nc2c1c(=O)[nH]n2C(CC)CC (stereo not shown) | 9.43% |
| CCc1ccc(C(C(=O)NC2CCCC2)N(C(=O)c2csnn2)C2CC2)cc1 (stereo not shown) | 7.66% |
| Cc1cccc(CCNC(=O)c2oc3c(C)c(C)ccc3c2C)n1 | 16.8% |
| COc1ccc(S(=O)(=O)NCCc2cn3cccc(C)c3n2)cc1OC | 13.7% |

| Compound | hERG current change (%, negative = inhibition) at 1uM |
| --- | --- |
| C/C(N)=C(/C#N)C(=O)COC(=O)Cc1coc2cc(C)ccc12 | 10.9% |
| CSCC[C@H](NC(=O)OC(C)(C)C)C(=O)N/N=C/c1c(C)[nH]c(=O)[nH]c1=O | 22.5% |
| CC(C)Sc1nc2c([nH]1)c(=N)ncn2Cc1ccccc1 | 8.86% |
| CCn1c(SCC(=O)NCCc2ccccc2)nc2sc3c(c2c1=O)CCN(C)C3 | 10.4% |
| CC(=O)Nc1ccc(S(=O)(=O)Nc2ccccc2C(=O)N2CCOCC2)cc1 | 15.9% |
| COc1ccc(CCN2C(=O)c3ccncc3C2=O)cc1OC | 8.98% |
| Cc1cc(Cl)ccc1NC(=S)N1CCN(Cc2ccc3c(c2)OCO3)CC1 | 10.3% |
| O=C(c1ccc(Cl)cc1)N1CCCC(C(=O)N2CCCCC2)C1 (stereo not shown) | 13.8% |
| CCCCNC(=S)N(C)/N=C/c1ccc(OCC(=O)Nc2c(C)cc(C)cc2C)c(OC)c1 | 7.54% |
| COC(=O)C(Cc1c[nH]c2ccccc12)NC(=O)C1CC1 (stereo not shown) | 6.74% |
| Cc1cccc(C2NS(=O)(=O)N=C2N)c1 (stereo not shown) | 5.09% |
| CCN=C1SC(CC(=O)NC(N)=O)C(=O)N1CC (stereo not shown) | 10.4% |
| Cc1ccc(-n2cc(S(=O)(=O)c3ccc(C)cc3)[nH]c2=O)cc1 | 9.05% |
| CN(Cc1ccccc1)C(=O)C1CCCN1S(=O)(=O)c1ccc2c(c1)n(C)c(=O)c(=O)n2C (stereo not shown) | 9.53% |
| COc1cc(Cc2nc3ccc(S(=O)(=O)N4CCOCC4)cc3[nH]2)cc(OC)c1OC | 14.4% |
| COC(=O)C1(C(F)(F)F)N=C(C(F)(F)F)Nc2ccc(Cl)cc21 (stereo not shown) | 9.65% |
| COc1ccc(-c2cc(C(F)(F)F)c(C#N)c(SCC(=O)O)n2)cc1 | 5.45% |
| CC1(C)OC(c2ccccc2)=C/C(=C/C=C2C(=O)NC(=O)NC2=O)O1 | 13.7% |
| Cc1cc(C(=O)Nc2c(F)cc(F)cc2Br)no1 | 13.2% |
| Cc1cc(Cl)ccc1OCCNC(=S)NC(=O)c1cccnc1 | 12.3% |
| O=C(c1cccc(S(=O)(=O)N2CCCC2)c1)N1CCN(c2ccccc2F)CC1 | -8.64% |
| O=C(Nc1ccccc1[N+](=O)[O-])c1cc2ccccc2nc1Cl | 9.96% |
